# Assay results: PubChem BioAssay (Tox21)
# “And” between values parts separate entries of the source, which are not always exact repeats. Equal entries are not always repeated. The shares of active, inactive and inconclusive entries below differ from those in the screen. For some assays here: Potencies of inconclusive entries are doubtful fits and often do not repeat. The source made the active and inactive calls. Unless noted, calls come from the whole dose curve; as a rule, active = well fitted curve in the direction sought with a large enough effect in the repeat runs; inconclusive = weak or mixed curves; inactive = no such curve, though single readings can be large; an effect the other way counts as inactive or inconclusive.
# Tests used:
# [1] = qHTS assay for small molecule agonists of the antioxidant response element (ARE) signaling pathway (AID 743202; active = well fitted activation curve with a large enough effect in the signal ratio in the repeat runs, not every such curve was filed as active; inconclusive = weak or mixed curves, or effect the other way; inactive = no such curve, though single readings can be large or run the other way; the % refers to the signal ratio; note: potency is the fitted concentration of half-maximal effect); settings: HepG2 ARE-bla reporter, beta-lactamase FRET, 16 h; activation: at 73.3 µM (top of the series) unless noted
# How it was run: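 After 16 hours of compound treatment at 37 C, HepG2 cells with a stably integrated ARE-driven beta-lactamase reporter were loaded 2 hours at room temperature with LiveBLAzer B/G FRET substrate and fluorescence intensity measured.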
# [2] = biological target: Vitamin D3 receptor (Homo sapiens) (UniProt P11473); test: qHTS assay to identify small molecule agonists of the vitamin D receptor (VDR) signaling pathway (AID 743222; calls by dose curve; note: potency is the fitted concentration of half-maximal effect; for activation: % is set by controls: 0 for no effect and ±100 for the full control effect); settings: HEK293T VDR-UAS-bla, beta-lactamase FRET ratio, 16 h; activation: at 63.5 µM (top of the series) unless noted
# UniProt P11473, sequence (P11473 whole entry, looked up): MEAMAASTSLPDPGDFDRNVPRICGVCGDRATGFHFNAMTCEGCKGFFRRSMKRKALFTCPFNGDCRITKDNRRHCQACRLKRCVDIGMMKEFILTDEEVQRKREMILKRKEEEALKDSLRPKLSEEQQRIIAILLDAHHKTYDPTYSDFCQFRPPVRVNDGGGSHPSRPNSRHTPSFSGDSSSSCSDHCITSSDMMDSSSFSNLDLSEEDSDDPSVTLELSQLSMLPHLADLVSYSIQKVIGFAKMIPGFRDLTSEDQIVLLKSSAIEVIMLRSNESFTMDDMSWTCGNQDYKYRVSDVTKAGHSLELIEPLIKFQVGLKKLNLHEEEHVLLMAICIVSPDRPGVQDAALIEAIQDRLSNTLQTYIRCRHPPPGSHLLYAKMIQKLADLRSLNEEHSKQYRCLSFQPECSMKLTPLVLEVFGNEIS
# How it was run: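 Using LiveBLAzer B/G FRET detection, agonism was scored in VDR-bla cells exposed overnight (16 h, 37C) to DMSO-dissolved compounds; substrate incubation was 2 h at room temperature.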
# [3] = biological target: Vitamin D3 receptor (Homo sapiens) (UniProt P11473); test: qHTS assay to identify small molecule antagonists of the vitamin D receptor (VDR) signaling pathway (AID 743223; active = well fitted inhibition curve with a large enough effect in the signal ratio in the repeat runs, not every such curve was filed as active; inconclusive = weak or mixed curves, or effect the other way; inactive = no such curve, though single readings can be large or run the other way; the % refers to the signal ratio; note: potency is the fitted concentration of half-maximal effect; for activity change, negative = inhibition: % is set by controls: 0 for no effect and ±100 for the full control effect); settings: VDR-UAS-bla HEK293T, beta-lactamase FRET ratio, 16 h; activity change, negative = inhibition: at 61 µM (top of the series) unless noted
# How it was run: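 VDR-bla cells were treated with compound plus 3 nM final 1alpha,25-dihydroxyvitamin D3 for 16 h at 37C. Beta-lactamase reporter read by B/G FRET substrate fluorescence after 2 h at room temperature. qHTS format.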
# [4] = qHTS assay to identify small molecule antagonists of the vitamin D receptor (VDR) signaling pathway - cell viability counter screen (AID 743225); settings: VDR-bla HEK293T viability, CellTiter-Glo luminescence, 16 h; viability change, negative = cytotoxic: at 61 µM (top of the series) unless noted; note: nearly all actives have a fitted effect of over 50% in size; note: potency is the fitted concentration of half-maximal effect
# How it was run: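 VDR-UAS-bla HEK 293T cells were plated and incubated 4 h at 37C, then dosed with compound plus 3 nM (final) 1-alpha,25-dihydroxyvitamin D3 for 16 h. After the 2 h beta-lactamase read, viability in the same wells was read as CellTiter-Glo luminescence after 30 min at room temperature.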
# [5] = biological target: Nuclear receptor ROR-gamma (Homo sapiens) (UniProt P51449); test: qHTS assay to identify small molecule antagonists of the retinoid-related orphan receptor gamma (ROR-gamma) signaling pathway (AID 1159521; note: nearly all actives have a fitted effect of over 50% in size; note: potency is the fitted concentration of half-maximal effect)
# How it was run: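 Tet-on ROR-gamma CHO cells with ROR response element-luciferase reporter; compounds added 2 hr before 1 uM doxycycline induction, then 16 hr at 37 C. Antagonism scored as decreased ONE-Glo luminescence.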
# [6] = qHTS assay to identify small molecule agonists of the AP-1 signaling pathway (AID 1159526; calls by dose curve; note: potency is the fitted concentration of half-maximal effect; for activation: % is set by controls: 0 for no effect and ±100 for the full control effect); settings: ME-180 (cervical carcinoma) AP-1-bla reporter, beta-lactamase FRET ratio, 5 h; activation: at 76.8 µM (top of the series) unless noted
# [7] = qHTS assay to identify small molecule antagonists of the peroxisome proliferator-activated receptor delta (PPARd) signaling pathway - cell viability counter screen (AID 743213); settings: PPARd-bla HEK293H viability, CellTiter-Glo luminescence, 17 h; viability change, negative = cytotoxic: at 62 µM (top of the series) unless noted; note: nearly all actives have a fitted effect of over 50% in size; note: potency is the fitted concentration of half-maximal effect
# How it was run: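 Same-well viability: cells pre-incubated 5 h, dosed with compound plus 300 nM L165041, kept 17 h at 37 C, FRET substrate 2 h RT, then CellTiter-Glo 30 min RT and luminescence.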
# [8] = qHTS assay to identify small molecule agonists of the farnesoid-X-receptor (FXR) signaling pathway - cell viability counter screen (AID 743218); settings: FXR-bla HEK293T viability, CellTiter-Glo luminescence, 16 h; viability change, negative = cytotoxic: at 62.6 µM (top of the series) unless noted; note: potency is the fitted concentration of half-maximal effect; nearly all actives have a fitted effect of over 45% in size
# How it was run: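 Same-well cytotoxicity check on FXR-UAS-bla HEK 293T cells: 5 h attachment, 16 h compound at 37 C, CellTiter-Glo luminescence read at room temperature after 30 min.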
# [9] = qHTS assay to identify small molecule agonists of the vitamin D receptor (VDR) signaling pathway - cell viability counter screen (AID 743224); settings: VDR-bla HEK293T viability, CellTiter-Glo luminescence, 16 h; activity change, negative = cytotoxicity: at 62.6 µM (top of the series); note: nearly all actives have a fitted effect of over 50% in size; note: potency is the fitted concentration of half-maximal effect
# How it was run: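 Counter screen for cytotoxicity: VDR-bla cells at 2,000 cells/well, 16 h compound exposure, then CellTiter-Glo luminescence after the beta-lactamase measurement.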
# [10] = biological target: Peroxisome proliferator-activated receptor delta (Homo sapiens) (UniProt Q03181); test: qHTS assay to identify small molecule agonists of the peroxisome proliferator-activated receptor delta (PPARd) signaling pathway (AID 743212; calls by dose curve;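 note: HEK293H cells with PPARd UAS beta-lactamase reporter GeneBLAzer system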; note: potency is the fitted concentration of half-maximal effect); settings: HEK293H PPARd-UAS-bla, beta-lactamase FRET ratio, 17 h; activation: at 62.6 µM (top of the series) unless noted
# UniProt Q03181, sequence (Q03181 whole entry, looked up): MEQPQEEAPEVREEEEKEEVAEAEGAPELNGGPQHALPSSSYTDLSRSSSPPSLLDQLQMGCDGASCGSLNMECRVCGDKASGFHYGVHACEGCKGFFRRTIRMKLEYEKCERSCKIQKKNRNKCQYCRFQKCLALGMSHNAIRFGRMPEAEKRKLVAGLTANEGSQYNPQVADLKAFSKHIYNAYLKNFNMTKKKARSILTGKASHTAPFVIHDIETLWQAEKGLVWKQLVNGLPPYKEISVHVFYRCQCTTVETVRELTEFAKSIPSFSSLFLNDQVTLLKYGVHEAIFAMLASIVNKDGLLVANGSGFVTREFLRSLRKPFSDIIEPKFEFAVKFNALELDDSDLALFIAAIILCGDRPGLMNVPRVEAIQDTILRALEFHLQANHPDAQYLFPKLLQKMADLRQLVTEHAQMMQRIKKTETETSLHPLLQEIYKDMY
# How it was run: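 Beta-lactamase reporter readout: a ratiometric FRET signal from the LiveBLAzer substrate after 2 h at room temperature. Compound exposure at 37 °C in PPARδ-bla HEK293H cells driven by an upstream activator sequence.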
# [11] = biological target: Bile acid receptor (Homo sapiens) (UniProt Q96RI1); test: qHTS assay to identify small molecule antagonists of the farnesoid-X-receptor (FXR) signaling pathway (AID 743217; active = well fitted inhibition curve with a large enough effect in the signal ratio in the repeat runs, not every such curve was filed as active; inconclusive = weak or mixed curves, or effect the other way; inactive = no such curve, though single readings can be large or run the other way; the % refers to the signal ratio; note: % is set by controls: 0 for no effect and ±100 for the full control effect); settings: HEK293T FXR-UAS-bla, beta-lactamase ratio, CDCA-stimulated, 16 h; activity change, negative = inhibition: at 62.6 µM (top of the series) unless noted
# UniProt Q96RI1, sequence (Q96RI1 whole entry, looked up): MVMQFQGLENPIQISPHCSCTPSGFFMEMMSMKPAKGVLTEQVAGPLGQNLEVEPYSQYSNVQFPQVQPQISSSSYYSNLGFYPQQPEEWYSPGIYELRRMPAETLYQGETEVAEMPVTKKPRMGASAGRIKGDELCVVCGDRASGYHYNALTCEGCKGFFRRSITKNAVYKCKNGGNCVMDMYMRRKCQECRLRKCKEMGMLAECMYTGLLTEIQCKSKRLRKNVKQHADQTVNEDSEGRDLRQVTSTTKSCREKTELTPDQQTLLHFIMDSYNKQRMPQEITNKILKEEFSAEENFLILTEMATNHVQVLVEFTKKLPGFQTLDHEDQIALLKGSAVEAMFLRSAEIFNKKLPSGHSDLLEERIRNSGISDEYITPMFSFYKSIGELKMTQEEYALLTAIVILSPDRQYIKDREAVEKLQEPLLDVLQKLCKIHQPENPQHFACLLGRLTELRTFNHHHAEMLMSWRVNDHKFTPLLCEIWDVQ
# How it was run: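 Quantitative HTS, beta-lactamase reporter format: FXR-UAS-bla HEK 293T cells co-treated 16 h at 37 °C with compounds and 50 uM final chenodeoxycholic acid, then read by B/G FRET fluorescence.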
# [12] = qHTS assay for small molecule agonists of the antioxidant response element (ARE) signaling pathway - cell viability counter screen (AID 743203; calls by dose curve; note: nearly all actives have a fitted effect of over 55% in size; note: potency is the fitted concentration of half-maximal effect); settings: ARE-bla HepG2 viability, CellTiter-Glo luminescence, 16 h; viability change, negative = cytotoxic: at 73.3 µM (top of the series)
# How it was run: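 Parallel cytotoxicity read-out for the ARE-bla screen: HepG2 reporter cells, 16 hrs with compounds, then CellTiter-Glo luminescence.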
# [13] = qHTS assay for small molecule activators of the heat shock response signaling pathway (AID 743210; active = well fitted activation curve with a large enough effect in the signal ratio in the repeat runs, with a control signal flat, not every such curve was filed as active; inconclusive = weak or mixed curves; the % refers to the signal ratio; note: potency is the fitted concentration of half-maximal effect); settings: HeLa HSE-bla reporter, beta-lactamase ratio, 5 h; activation: at 62.6 µM (top of the series) unless noted
# How it was run: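 Compound exposure lasted 5 h at 37 C in HeLa cells carrying a heat-shock-element-driven beta-lactamase reporter. Read-out: fluorescence intensity after 2.5 h room-temperature loading with LiveBLAzer B/G FRET substrate.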
# [14] = qHTS assay to identify small molecule agonists of the peroxisome proliferator-activated receptor delta (PPARd) signaling pathway - cell viability counter screen (AID 743211); settings: PPARd-bla HEK293H viability, CellTiter-Glo luminescence, 17 h; activity change, negative = cytotoxicity: at 62.6 µM (top of the series); note: potency is the fitted concentration of half-maximal effect; nearly all actives have a fitted effect of over 55% in size
# How it was run: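 PPARd-bla HEK293H cells (3000/well) were pre-incubated 5 h at 37 C, then exposed to compound for 17 h at 37 C. After 2 h with LiveBLAzer substrate, CellTiter-Glo was added to the same wells; luminescence read after 30 min at room temperature.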
# [15] = biological target: Peroxisome proliferator-activated receptor delta (Homo sapiens) (UniProt Q03181); test: qHTS assay to identify small molecule antagonists of the peroxisome proliferator-activated receptor delta (PPARd) signaling pathway (AID 743215; active = well fitted inhibition curve with a large enough effect in the signal ratio in the repeat runs, not every such curve was filed as active; inconclusive = weak or mixed curves, or effect the other way; inactive = no such curve, though single readings can be large or run the other way; the % refers to the signal ratio;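 note: cells stimulated with agonist L165041 at 300 nM final during compound exposure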; note: potency is the fitted concentration of half-maximal effect); settings: HEK293H PPARd-UAS-bla, beta-lactamase FRET ratio, antagonist, 17 h; ratio activity, negative = inhibition: at 62 µM (top of the series) unless noted
# How it was run: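 Screen format: qHTS, antagonist mode. HEK293H PPARd-bla cells received compound and 300 nM L165041 (final), 17 h, 37 C. Beta-lactamase detected via FRET substrate fluorescence, 2 h, room temperature.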
# [16] = qHTS assay for small molecule activators of the heat shock response signaling pathway - cell viability counter screen (AID 743209); settings: HSE-bla HeLa viability, CellTiter-Glo luminescence, 5 h; activity change, negative = cytotoxicity: at 62.6 µM (top of the series)
# How it was run: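 To flag cytotoxic compounds, HSE-bla HeLa cells plated at 1500 cells/well were dosed for 5 h at 37 C, followed by the reporter FRET read and then CellTiter-Glo, with luminescence recorded 30 min after reagent addition.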
# [17] = qHTS assay to identify small molecule antagonists of the farnesoid-X-receptor (FXR) signaling pathway - cell viability counter screen (AID 743221; active = well fitted cell-killing curve with a large enough effect in the repeat runs, not every such curve was filed as active; inconclusive = weak or mixed curves, or effect the other way; inactive = no such curve, though single readings can be large or run the other way); settings: FXR-bla HEK293T viability, CellTiter-Glo luminescence, 16 h; activity change, negative = cytotoxicity: at 62.6 µM (top of the series) unless noted
# How it was run: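 GeneBLAzer FXR-UAS-bla HEK 293T cells, compound plus chenodeoxycholic acid (50 uM final), 16 h at 37 C. CellTiter-Glo added to the same wells after the beta-lactamase read; luminescence read after 30 min at room temperature as viability.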
# Tags give direction and shape of the fitted curve or compound fluorescence and quenching.
smiles,measurement,setting,value
O=S(=O)(c1ccccc1)c1ccc(Cl)cc1,Potency,[1],inconclusive: 61.1 µM
same,Potency,[2],inactive
same,Potency,[3],inactive
same,Potency,[4],"inconclusive: 219 nM [cytotoxic, single point]"
same,Potency,[5],"inconclusive: 0.545 µM [inhibitor, full curve, poor fit]"
same,Potency,[6],inactive
O=C1CCC(C2CCCCC2)CC1,activation,[1],inconclusive: 43.6%
same,Potency,[7],inactive
same,Potency,[8],"inconclusive: 17.4 µM [rising, partial curve, poor fit]"
same,Potency,[4],inactive
same,Potency,[5],"inconclusive: 6.86 µM [inhibitor, partial curve, poor fit]"
same,Potency,[6],inactive
CC1CC(=O)NN=C1c1ccc(NCC(C)(C)NCC(O)COc2cc(Cl)ccc2C#N)cc1 (centres undefined),Potency,[7],"inconclusive: 26.6 µM [cytotoxic, partial curve]"
same,Potency,[2],inactive
same,"activity change, negative = inhibition",[3],inconclusive: -0.0826%
same,Potency,[5],"inconclusive: 15 µM [inhibitor, partial curve, poor fit]"
same,Potency,[6],"inconclusive: 26.8 µM [activator, single point]"
CCc1cccc(N(C)C(N)=Nc2cccc3ccccc23)c1,Potency,[1],inconclusive: 26.6 µM
same,Potency,[9],"inconclusive: 33.5 µM [cytotoxic, partial curve, poor fit]"
same,Potency,[5],"inconclusive: 29.8 µM [inhibitor, single point]"
same,Potency,[6],"inconclusive: 26.8 µM [falling, single point]"
CCCCCCCCCCOS(=O)(=O)O,Potency,[1],"inconclusive: 43.1 µM [rising, partial curve, poor fit]"
same,activation,[10],inconclusive: 4.58%
same,Potency,[11],inactive
same,Potency,[8],"inconclusive: 38.8 µM [cytotoxic, partial curve, poor fit]"
same,activation,[2],inconclusive: 7.16%
same,Potency,[4],inactive
same,Potency,[5],"inconclusive: 6.83 µM [inhibitor, single point]"
same,Potency,[6],inconclusive: 48.8 µM [activator]
C[N+](C)(C)CC(O)CC(=O)[O-] (centres undefined),Potency,[1],inactive
same,Potency,[5],inactive
O=C(O)c1ccccc1-c1ccc(C(F)(F)F)cc1,Potency,[3],"inconclusive: 674 nM [inhibitor, full curve, poor fit]"
same,Potency,[5],inactive
same,Potency,[6],inactive
NO,Potency,[1],inactive
same,Potency,[5],inactive
COc1cc2c(cc1OC)-c1cc(=Nc3c(C)cc(C)cc3C)n(C)c(=O)n1CC2,activation,[1],inconclusive: -17.3%
same,Potency,[12],inconclusive: 29.8 µM [cytotoxic]
same,Potency,[13],inconclusive: 22.4 µM
same,Potency,[14],"inconclusive: 33.5 µM [cytotoxic, single point]"
same,Potency,[10],"inconclusive: 29.8 µM [rising, partial curve]"
same,"viability change, negative = cytotoxic",[7],inconclusive: -34.8% [cytotoxic]
same,Potency,[15],"inconclusive: 33.5 µM [inhibitor, single point]"
same,Potency,[2],"inconclusive: 29.8 µM [rising, partial curve]"
same,Potency,[9],"inconclusive: 33.5 µM [cytotoxic, single point]"
same,Potency,[5],"inconclusive: 26.6 µM [inhibitor, partial curve, poor fit]"
CC(C)CC(=O)O,Potency,[1],"inconclusive: 53.3 µM [rising, partial curve]"
same,Potency,[5],inactive
C=C(C)C(=O)OCCO,activation,[1],inconclusive: 27.4% [at 94.8 µM]
same,Potency,[12],inactive
same,Potency,[5],"inconclusive: 0.002 µM [inhibitor, full curve, poor fit]"
Cc1ccc(C(C)NC(=O)[C@@H](NC(=O)OC(C)C)C(C)C)cc1 (some centres undefined),Potency,[1],inactive
same,Potency,[12],inactive
same,"ratio activity, negative = inhibition",[15],inconclusive: 0.968%
same,Potency,[5],inactive
Cc1cccc(Nc2ccccc2C(=O)O)c1C,Potency,[1],inconclusive: 26.6 µM
same,activation,[1],inconclusive: 33.1%
same,activation,[10],inconclusive: 3% and inconclusive: 9.57%
same,Potency,[5],"inconclusive: 77 µM [inhibitor, single point]"
CC(C)C[C@H]1C(=O)N2CCC[C@H]2[C@]2(O)O[C@](NC(=O)[C@@H]3C=C4c5cccc6[nH]c(Br)c(c56)C[C@H]4N(C)C3)(C(C)C)C(=O)N12,Potency,[1],active: 4.13 µM
same,Potency,[13],inactive
same,Potency,[14],"inconclusive: 14.8 µM [cytotoxic, partial curve, poor fit]"
same,Potency,[7],"inconclusive: 5.24 µM [cytotoxic, partial curve, poor fit]"
same,Potency,[3],inactive
same,Potency,[5],"inconclusive: 20.7 µM [inhibitor, single point]"
O=C(CCCN1CCC(O)(c2ccc(Br)cc2)CC1)c1ccc(F)cc1,Potency,[1],inconclusive: 23.7 µM
same,Potency,[16],"inconclusive: 4.22 µM [rising, partial curve, poor fit]"
same,Potency,[14],"inconclusive: 0.106 µM [cytotoxic, single point]"
same,Potency,[10],inactive
same,Potency,[8],"inconclusive: 9.44 µM [cytotoxic, full curve]"
same,Potency,[17],"inconclusive: 33.5 µM [falling, single point]"
same,Potency,[3],inactive
same,Potency,[9],inactive
same,Potency,[5],"inconclusive: 33.5 µM [inhibitor, partial curve, poor fit]"
